Reference: PubChem BioAssay AID686979 (National Center for Advancing Translational Sciences (NCATS), 2013)
“And” between values parts separate entries of the source, which are not always exact repeats. Equal entries are not always repeated. Screen size: about 420,000 compounds; about 50,000 (12%) were called active. This list was built around the results that the source calls inconclusive (neither active nor inactive); the mix of calls is not that of the screen. Calls follow the shape of the dose curve; as a rule, active = well fitted inhibition curve with a large enough effect; inconclusive = small, poorly fitted or top-dose-only effect; inactive = flat fitted curve, though single readings scatter. Where the call is inconclusive, the potency comes from a doubtful curve fit.

Experiment: qHTS for Inhibitors of human tyrosyl-DNA phosphodiesterase 1 (TDP1): qHTS in cells in presence of CPT; also: nearly all actives have a fitted effect of over 55% in size
Details: chicken DT40 Tdp1-/-;hTDP1 cells + 20 nM CPT, ATP luminescence, 48 h; activity change, negative = growth inhibition: at 46.2 µM (top of the series) unless noted
Method in brief: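 Chicken DT40 Tdp1-/- cells stably complemented with human TDP1 were seeded at 400 cells/well in medium containing 20 nM camptothecin, exposed to pin-transferred compounds, and grown at 37 °C for at least 48 hr. Viability was read as ATP luminescence.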
% is scaled to controls: 0 for no effect and ±100 for the full control effect; potency is read from the fitted curve at half-maximal effect; tags tell the direction and shape of the fitted curve.

| SMILES | activity change, negative = growth inhibition | Potency |
| --- | --- | --- |
| O=C(c1cc(F)c(F)c(F)c1F)N1CCN(Cc2ccc3c(c2)OCO3)CC1 | inconclusive: -30.1% [inhibitor] | – |
| CCc1ccccc1-n1c(SCC(=O)Nc2ccc3c(c2)OCCO3)nc2[nH]ncc2c1=O | – | inconclusive: 13 µM [inhibitor, partial curve, poor fit] |
| CCCCS(=O)(=O)c1sc2nc3c(cc2c1N)CCCC3 | – | active: 11.6 µM |
| CC12COC3(C(=O)Nc4ccc([N+](=O)[O-])cc4)CC1CCC32C (stereo unspecified) | – | inactive |
| O=C(CSc1nnc(COc2ccccc2Cl)o1)NC(=O)NC1CCCC1 | – | inconclusive: 7.31 µM [inhibitor, full curve, poor fit] |
| COc1ccccc1C(=O)Nc1ccnn1C1CCN(Cc2cnn(C)c2C)CC1 | – | inactive |
| CCCN(CC(=O)Nc1ccccc1C)C(=O)c1ccc(N2CCCCCC2)c([N+](=O)[O-])c1 | – | inconclusive: 23.1 µM [inhibitor, single point] |
| COc1cc(OC)cc(C(=O)OC/C(O)=C(\C#N)c2nc3ccccc3[nH]2)c1 | – | inconclusive: 29.1 µM [inhibitor, single point] |
| Cc1onc(-c2c(F)cccc2Cl)c1C(=O)Nc1nnc(C2CC2)s1 | – | inconclusive: 0.58 µM [inhibitor, full curve, poor fit] |
| O=C(CCCOc1ccc(Cl)cc1Cl)N/N=C\C1CCCCC1 | – | inactive |
| O=C(CN1CCOCC1)Nc1ccc2c(c1)OCCO2 | – | inactive |
| Cc1ccc(OCC(O)Cn2c(N3CCCCC3)nc3c2c(=O)[nH]c(=O)n3C)cc1C (stereo unspecified) | – | inconclusive: 23.1 µM [inhibitor, single point] |
| O=C1CCCCC1Sc1nnc(Cc2cccs2)n1CCc1ccccc1 (stereo unspecified) | – | inconclusive: 29.1 µM [inhibitor, single point] |
| CC(=O)c1c(C)[nH]c(C(=O)Nc2ccc(Cl)cc2)c1C | – | inconclusive: 23.1 µM [inhibitor, partial curve, poor fit] |
| COc1ccccc1CCC(=O)Nc1ccc2c(c1)c(=O)n(C)n2Cc1cccc(C(F)(F)F)c1 | – | active: 23.1 µM |
| COc1cccc(NC(=O)C2CCCN(S(=O)(=O)c3c(C)nn(C)c3C)C2)c1 (stereo unspecified) | – | inconclusive: 18.4 µM [inhibitor, single point] |
| Cc1ccc2nc(-c3ccc(NC(=O)CNC4CC4)cc3)sc2c1 | – | active: 16.4 µM |
| COc1ccc(N2CCN(CC(=O)Nc3ccccc3C(=O)NC(C)c3ccccc3)CC2)cc1 (stereo unspecified) | – | inconclusive: 29.1 µM [inhibitor, single point] |
| Cc1cccc(C)c1OCCn1c(C2CC(=O)N(c3cccc(Cl)c3)C2)nc2ccccc21 (stereo unspecified) | – | active: 16.4 µM |
| Cc1ccccc1C(=O)NNC(=O)C1CC(=O)N(Cc2ccccc2)C1 (stereo unspecified) | – | inactive |
| CCOc1ccc(-c2cn3ccccc3n2)cc1 | – | inconclusive: 3.66 µM [inhibitor, full curve] |
| COc1ccc(SCc2cc(=O)c3cc(Cl)ccc3[nH]2)cc1 | – | active: 20.6 µM |
| C#CCn1cnc2c(oc3ccccc32)c1=O | – | inactive |
| COc1ccc([N+](=O)[O-])cc1N(CC(O)CN1CCOCC1)S(=O)(=O)c1ccccc1 (stereo unspecified) | – | inconclusive: 14.6 µM [inhibitor, partial curve] |
| CSCCNC(=O)c1ccc2nc(C3CCCCC3)oc2c1 | – | inactive |
| COc1ccc(-c2csc(N3CCN(C(=O)c4ccccc4)CC3)n2)cc1 | – | inconclusive: 25.9 µM [inhibitor, single point] |

| SMILES | activity change, negative = growth inhibition | Potency |
| --- | --- | --- |
| CC(C)N(C)NC(=S)Nc1ccccc1 | – | inconclusive: 20.6 µM [inhibitor, single point] |
| CCOc1ccc(OCC)c(NS(=O)(=O)c2cc(-c3cc(C)no3)ccc2C)c1 | – | inactive |
| Nc1nc(-c2ccc(S(=O)(=O)N3CCCCC3)cc2)cs1 | – | inconclusive: 29.1 µM [inhibitor, single point] |
| COCCN(C(=O)Nc1ccccc1OC)c1nc2ccccc2s1 | – | inactive |
| CC1=CC(C)(C)NC(=S)N1c1ccc(C)c(C)c1 | – | inconclusive: 20.6 µM [inhibitor, single point] |
| CC(C)Sc1oc(-c2cccs2)nc1S(=O)(=O)c1ccc(Cl)cc1 | – | inconclusive: 29.1 µM [inhibitor, single point] |
| CCc1ccccc1N1C(=O)N(Cc2ccc(C#N)cc2)c2ccccc2S1(=O)=O | – | inconclusive: 20.6 µM [inhibitor, single point] |
| CCCn1c(SCC(=O)NC2CCCC2)nc2c1c(=O)n(C)c(=O)n2C | – | inactive |
| CC(C)OCCCNc1nc(Cl)nc2c1cnn2C | – | inactive |
| CCn1c2ccccc2c2cc(CN3CCN(Cc4ccccc4F)CC3)ccc21 | – | inconclusive: 23.1 µM [inhibitor, single point] |
| CCCn1c(NCc2ccc(N(C)C)cc2)nc2ccccc21 | – | inconclusive: 13 µM [inhibitor, partial curve, poor fit] |
| CC1CCN(S(=O)(=O)c2ccc(NC(=O)CN3CCCC3)cc2)CC1 | – | inactive |
| O=C(c1cccc(N2CCCC2=O)c1)N1CCC(Oc2cccc(CN3CCN(c4ccccn4)CC3)c2)CC1 | – | inconclusive: 3.66 µM [inhibitor, single point] |
| O=C(Nc1ccccc1-c1cn2c(CN3CCNCC3)csc2n1)c1cnc2ccccc2n1 | – | active: 3.55 µM |
| CCOc1ccc(CCNC(=O)c2cn(CC)c3ccc(S(=O)(=O)N4CCc5ccccc5C4)cc3c2=O)cc1OCC | – | active: 18.4 µM |
| COc1ccccc1Cc1nc(-c2ccncc2)no1 | – | inconclusive: 20.6 µM [inhibitor, single point] |
| N#Cc1c(N2CCCCC2)nc(N)c2c(N)nc3c(c12)CC(c1ccccc1)O3 (stereo unspecified) | – | inconclusive: 35.5 µM [inhibitor, single point] |
| CCCn1c(SCC(=O)N2c3ccccc3CC2C)n[nH]c1=O (stereo unspecified) | – | inactive |
| CCOC(=O)C1CCN(S(=O)(=O)c2ccc(C(C)=O)cc2)CC1 | inconclusive: -35.5% [inhibitor] | – |
| Cn1ncc(N=Cc2ccc([N+](=O)[O-])cc2)c1C(=O)N1CCOCC1 | – | inactive |
| O=C(Nc1ccc(N2CCCC2=O)cc1)c1cncc(Br)c1 | – | inconclusive: 9.2 µM [inhibitor, partial curve] |
| COc1ccccc1N1CCN(C(=O)c2oc3c(c2C)C(=O)CC(C)(C)C3)CC1 | – | active: 14.6 µM |
| CCOc1ccc(S(=O)(=O)NCCc2sc3nc(-c4ccc(F)cc4)nn3c2C)cc1 | – | inconclusive: 29.1 µM [inhibitor, single point] |
| Cc1cccc(C(O)(C(=O)NNc2ccc3ccccc3n2)c2cccc(C)c2)c1 | – | active: 6.51 µM |
| Cc1nnc(SCc2ccc([N+](=O)[O-])cc2)[nH]c1=O | – | inactive |
| Cc1nc(C)c(C(=O)Nc2ccccc2)s1 | – | inactive |

| SMILES | activity change, negative = growth inhibition | Potency |
| --- | --- | --- |
| COc1ccccc1N1CCN(C(=S)Nc2ccccc2)CC1 | – | inconclusive: 29.1 µM [inhibitor, single point] |
| Cc1cccc(N2CCN(c3nc4ccccc4n4cnnc34)CC2)c1C | – | active: 25.9 µM |
| CC(Sc1nn(-c2ccc(F)cc2)c(=S)s1)C(=O)c1c(N)n(C)c(=O)n(C)c1=O (stereo unspecified) | – | inconclusive: 29.1 µM [inhibitor, single point] |
| CCCCc1cc(=O)oc2cc(C)cc(OCC(=O)NC(Cc3ccc(Cl)cc3)C(=O)O)c12 (stereo unspecified) | – | inactive |
| O=C(Nc1ccc(Cl)cn1)c1cccc(S(=O)(=O)N2CCCCC2)c1 | – | inconclusive: 20.6 µM [inhibitor, single point] |
| COc1ccc(Cl)cc1NC(=O)c1cnccn1 | – | inactive |
| CCC(=O)Oc1ccc(/C=C(\C#N)c2nc3ccccc3[nH]2)cc1OC | – | inconclusive: 18.4 µM [inhibitor, single point] |
| COc1ccc(-c2cc(C(F)(F)F)nc(S(=O)(=O)CCCC(=O)Nc3cccc(O)c3)n2)cc1OC | – | active: 3.66 µM |
| N#Cc1nc(-c2ccc(F)cc2)oc1N1CCCCC1 | – | inconclusive: 20.6 µM [inhibitor, single point] |
| COc1ccc(S(=O)(=O)n2oc(=O)cc2-c2ccccc2)cc1 | – | inactive |
| O=C(CSc1nc2ccccc2s1)Nc1ccc(C(=O)O)cc1 | – | inactive |
| CCOC(=O)N1CCN(S(=O)(=O)c2ccc(OC)c(Cl)c2Cl)CC1 | – | inconclusive: 11.6 µM [inhibitor, partial curve] |
| Cc1ccc(S(=O)(=O)n2cnc3ccccc32)cc1[N+](=O)[O-] | – | inactive |
| CCOC(=O)Cc1csc(NS(=O)(=O)c2ccc(NC(C)=O)cc2)n1 | – | inactive |
| Cc1noc(C)c1CN(C(=S)NC1CC2CCC1C2)c1ccccc1 (stereo unspecified) | – | inconclusive: 18.4 µM [inhibitor, single point] |
| CC1(C(=O)N/N=C/c2ccc([N+](=O)[O-])o2)CC1(Br)Br (stereo unspecified) | – | active: 13 µM |
| CCCC(=O)Nc1ccc(C(=O)Nc2nc(CC(=O)OCC)cs2)cc1 | – | inconclusive: 29.1 µM [inhibitor, single point] |
| O=S(=O)(c1ccc(NC(=S)N2CCOCC2)cc1)N1CCCCC1 | – | inactive |
| Cc1oc2ncnc(N3CCCCC3)c2c1C(=O)N1CCN(c2cccc(C(F)(F)F)c2)CC1 | – | active: 16.4 µM |
| CCOc1ccc(NC(=O)C2CCCN(S(=O)(=O)c3cccc4nonc34)C2)cc1 (stereo unspecified) | – | inactive |
| Cc1ccc(Nc2c(-c3cccs3)nc3nc(C)cc(C)n23)cc1 | – | active: 23.1 µM |
| CCOc1ccc(NC(=O)CSc2nccn2Cc2ccco2)cc1 | – | inactive and inconclusive: 18.4 µM [inhibitor, single point] |
| Cc1cc(C)cc(NC(=O)NCc2nnc(SCc3ccccc3)n2C)c1 | – | inactive |
| COc1cc(/C=C2/NC(=O)N(CC(=O)Nc3cccc(C)c3)C2=O)ccc1OCC(N)=O | – | inconclusive: 25.9 µM [inhibitor, single point] |
